# Laboratory results as given in PubChem BioAssay AID485364 (National Center for Advancing Translational Sciences (NCATS), 2010).
# The campaign covered roughly 360,000 compounds. About 11,000 (3.1%) were called active. The inconclusive results got no clear call from the source; some entries with a clear call stand among them for comparison. The call rests on the fitted dose curve; in most records, active means well fitted inhibition curve with a large enough effect; inconclusive means small, poorly fitted or top-dose-only effect; inactive means no such curve, though single readings can be large or run the other way. Potencies of inconclusive entries are left out as doubtful fits.
# Biological target: Schistosoma mansoni thioredoxin glutathione reductase (TGR) (UniProt Q962Y6)
# Experiment: qHTS Assay for the Inhibitors of Schistosoma Mansoni Peroxiredoxins; further: nearly all actives have a fitted effect of over 60% in size
# Details: purified TGR, DTNB reduction, TNB absorbance 405 nm; series mostly up to 114 µM
# How it was run: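 First, TGR (20 nM dispensed) and NADPH were mixed with compound. Second, a 15 min room-temperature incubation followed. Third, further NADPH and then DTNB were added to start the reaction. Finally, TNB absorbance was monitored kinetically.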
# Potency means the concentration at half of the fitted maximal effect; tags describe the fitted curve by direction and shape.
row,SMILES,Potency
1,CCCCCCCC#Cc1ccccc1/C=N/S(=O)c1ccc(C)cc1 (configuration not stated),"inconclusive [inhibitor, partial curve]"
2,COc1cccc(CNc2ccc(S(N)(=O)=O)cc2)c1OC,"inconclusive [inhibitor, single point]"
3,O=C(CCOc1ccccc1)N(Cc1cccnc1)c1nc2c(F)cccc2s1,active: 2.24 µM
4,CCCCn1c(NCc2ccc(N(C)C)cc2)nc2ccccc21,"inconclusive [inhibitor, single point]"
5,COc1ccc(/C=C/c2nc(S(=O)(=O)c3ccccc3)c(N(C)C)o2)cc1OC,"inconclusive [inhibitor, single point]"
6,Cc1ccc(S(=O)(=O)NN2C(=O)/C(=C/c3cccnc3)SC2=S)cc1,"inconclusive [inhibitor, partial curve]"
7,O=C(Nc1cccnc1Cl)c1cccc(F)c1,inactive
8,COC1=C/C(=C/c2c(O)c(C#N)c3ccccn23)C=CC1=O,"inconclusive [inhibitor, partial curve]"
9,CC1=C(c2ccc(Cl)cc2)S(=O)(=O)N=C1N1CCC(C(=O)NCc2ccccc2F)CC1,inactive
10,CC(C)(C)C(=O)NC(=S)Nc1cc(C(F)(F)F)ccc1N1CCOCC1,inactive
11,Cc1ccc(-c2nc(N)n(C(=O)Cc3ccccc3)n2)cc1,inactive
12,Cc1nc(NC(=O)c2ccccc2)sc1-c1csc(NCc2ccccc2)n1,inactive
13,CCc1ccc(S(=O)(=O)Nc2cc3c(cc2N2CCCCC2)n(C)c(=O)c(=O)n3C)cc1,active: 50.1 µM
14,O=C(CCC1N=C2c3ccccc3N=C(SCc3ccccc3F)N2C1=O)NCc1ccc(F)cc1 (configuration not stated),inactive
15,CCC(=O)N1CCc2cc(Br)cc(S(=O)(=O)CCC(=O)NCc3cccc(OC)c3)c21,"inconclusive [inhibitor, partial curve]"
16,CC1CCN(S(=O)(=O)c2ccc(C(=O)Nc3ncccc3O)cc2)CC1,"inconclusive [inhibitor, partial curve, poor fit]"
17,O=C(C1=C[C@H](c2ccc(Br)cc2)C[C@H](OCCCCO)O1)N1CCN(Cc2ccc3c(c2)OCO3)CC1,inactive
18,COC(=O)c1ccccc1NC(=O)CCS(=O)(=O)c1ccc(Br)s1,"inconclusive [inhibitor, partial curve]"
19,CC(C)N(CCCNC(=O)Cn1c(=O)c2cccn2c2ccccc21)Cc1ccccc1,"inconclusive [inhibitor, partial curve]"
20,CC(=O)n1cc([C@H]2C=C(C(=O)N3CCOCC3)O[C@@H](OCc3ccc(CO)cc3)C2)c2ccccc21,"inconclusive [inhibitor, partial curve]"
21,COc1ccc(OC)c(-c2nc(CN3CCN(C(=O)c4ccco4)CC3)c(C)o2)c1,"inconclusive [inhibitor, partial curve]"
22,Cc1ccccc1CSc1nc2ccsc2c(=O)n1CCC(C)C,inactive
23,C=CCn1c(=O)c(C(=O)NCCc2ccccc2)c(O)c2ccccc21,inactive
24,COc1ccc(S(=O)(=O)Cc2ccc(C(=O)N3CCN(C(=O)c4ccco4)CC3)o2)cc1,"inconclusive [inhibitor, partial curve]"

row,SMILES,Potency
1,O=S(=O)(Nc1ccccn1)c1ccc(-n2cccn2)cc1,inactive
2,CCOC(=O)CSc1nc2c(c(-c3ccc(C)o3)c1C#N)CCCC2,active: 44.7 µM
3,CCCC(=O)Nc1nnc(CCc2ccccc2)s1,inactive
4,Cc1ccc(-n2c(=O)c3c(cnn3C)n(CC(=O)Nc3ccccc3C)c2=O)cc1,inactive
5,O=C(COC(=O)c1ccc([N+](=O)[O-])cc1Cl)NCc1ccco1,"inconclusive [inhibitor, partial curve]"
6,COC(=O)CSC1=NS(=O)(=O)c2ccccc21,active: 2.51 µM
7,Cc1cccc(CN2CCN(Cc3ccc4nonc4c3)CC2CCO)n1 (configuration not stated),"inconclusive [inhibitor, partial curve]"
8,O=C(CCn1cccc1)Nc1ccc(F)cc1,"inconclusive [inhibitor, full curve]"
9,Cc1ccc(-n2nc3c(c2NC(=O)c2ccco2)CS(=O)(=O)C3)cc1,"inconclusive [inhibitor, partial curve]"
10,COc1cc(CNS(=O)(=O)c2ccc3c(c2)CC(C)N3C(=O)C2CCC2)cc(OC)c1OC (configuration not stated),inactive
11,O=C(Nc1ccccc1)c1ccc(S(=O)(=O)NCC2CCCO2)cc1 (configuration not stated),"inconclusive [inhibitor, full curve, poor fit]"
12,Cc1nc(CNC(=O)CC2C(=O)NCCN2Cc2cccc(Oc3ccccc3)c2)cs1 (configuration not stated),"inconclusive [inhibitor, partial curve]"
13,COc1ccc(OC)c(NC(=O)Cn2c(CCC(=O)O)ccc2-c2cccs2)c1,"inconclusive [inhibitor, single point]"
14,Cc1ccc2[nH]c(-c3ccccc3)c(CN(C)C)c(=O)c2c1,inactive
15,Nc1nc(F)cc(N2CCCCCC2)n1,"inconclusive [inhibitor, single point]"
16,CCOc1ccc(C2C(C(=O)c3ccc(C)o3)=C(O)C(=O)N2c2nc(C)c(C(=O)OC)s2)cc1 (configuration not stated),active: 44.7 µM
17,Cc1cccc(NC(=O)c2ccc(S(=O)(=O)C(F)F)cc2)c1C,inactive
18,Cc1cc(C)cc(-n2c(SCC(=O)N3CCOCC3)nc3c([nH]c4ccccc43)c2=O)c1,inactive
19,O=C1CC(N2CCCCC2)C(=O)N1c1ccccc1 (configuration not stated),active: 31.6 µM
20,CN1CCN(C(=O)Nc2ccc3c(c2)N(C)C(=O)c2ccccc2S3)CC1,inactive
21,O=C(CN(Cc1cccs1)C(=O)CNS(=O)(=O)c1ccccc1)NCc1ccco1,"inconclusive [inhibitor, partial curve]"
22,O=C(NCC(F)(F)F)c1ccc(S(=O)(=O)N2CCN(C(=O)C3CCCO3)CC2)cc1 (configuration not stated),inactive
23,CC1(OC(=O)CCc2ccccc2)C(=O)C=C2C=C(c3ccc(C#N)cc3)N(Cc3ccccc3)C=C2C1=O (configuration not stated),"inconclusive [inhibitor, partial curve]"
